In PubChem BioAssay AID624417 (National Center for Advancing Translational Sciences (NCATS), 2012):
In all, about 410,000 compounds went through this assay and about 6,400 (1.6%) were called active. The inconclusive results got no clear call from the source; some entries with a clear call stand among them for comparison. Calls come from the whole dose curve; as a rule, active = well fitted inhibition curve with a large enough effect; inconclusive = small, poorly fitted or top-dose-only effect; inactive = no such curve, though single readings can be large or run the other way. Potencies of inconclusive entries are left out as doubtful fits.

What follows are compounds tested against Glucagon-like peptide 1 receptor (Homo sapiens) (UniProt P43220) (assay: qHTS of GLP-1 Receptor Inverse Agonists (Inhibition Mode)). Details: HEK293 GLP-1R CRE-luciferase, luminescence, 24 h, GLP-1R form is constitutively active; series mostly up to 38.3 µM.
Chain of UniProt P43220 (P43220 whole entry, looked up): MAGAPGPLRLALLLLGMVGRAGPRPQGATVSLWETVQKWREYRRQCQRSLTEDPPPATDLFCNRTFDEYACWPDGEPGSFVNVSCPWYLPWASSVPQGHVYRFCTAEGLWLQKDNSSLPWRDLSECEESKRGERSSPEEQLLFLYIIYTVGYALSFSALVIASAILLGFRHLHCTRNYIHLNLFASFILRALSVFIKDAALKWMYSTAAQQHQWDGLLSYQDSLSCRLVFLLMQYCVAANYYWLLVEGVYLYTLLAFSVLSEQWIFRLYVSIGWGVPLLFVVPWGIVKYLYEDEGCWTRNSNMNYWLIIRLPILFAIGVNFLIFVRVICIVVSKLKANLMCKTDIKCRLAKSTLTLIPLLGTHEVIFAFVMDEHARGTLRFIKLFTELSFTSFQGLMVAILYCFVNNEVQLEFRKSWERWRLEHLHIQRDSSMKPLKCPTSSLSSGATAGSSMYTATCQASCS
Method in brief: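 Assay principle: reduced luminescence from a cAMP-responsive reporter in HEK293 cells co-expressing a constitutively active GLP-1R. Conditions: 24 hr compound incubation, 37 deg C, 5% CO2.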
Note: nearly all actives have a fitted effect of over 55% in size.
Potency is the fitted concentration of half-maximal effect; tags give direction and shape of the fitted curve.

Structure (SMILES) | Potency
Cc1ccc(C(=O)Nc2cccc(C(F)(F)F)c2)cc1Nc1cncnc1 | inconclusive [inhibitor, partial curve, poor fit]
COc1ccc(CCNC(=O)C(=O)NCC2CCCN2S(=O)(=O)c2cc(C)ccc2C)cc1 (configuration not stated) | inconclusive [inhibitor, single point]
Cc1ccc(S(=O)(=O)NCCc2cn3ccsc3n2)cc1 | inactive
CCOC(=O)c1cc(-c2ccccc2)sc1NC(=O)C(C)Sc1nnnn1C (configuration not stated) | inconclusive [inhibitor, single point]
CCC(CC)C(=O)Nc1nc2c(s1)CC(C)CC2 (configuration not stated) | inconclusive [inhibitor, single point]
O=C(Nc1ccccc1N1CCN(C(=O)c2ccc(Cl)cc2)CC1)c1cccc(F)c1 | inconclusive [inhibitor, partial curve, poor fit]
COc1ccccc1N(C)S(=O)(=O)c1ccc(C(=O)Nc2ccc(C)cc2C)cc1 | inconclusive [inhibitor, single point]
O=C(COCc1cc(-c2ccc3c(c2)OCO3)on1)N1CCN(c2ccccc2)CC1 | inconclusive [inhibitor, single point]
COc1ccc(OCC(=O)Nc2c(C(=O)N3CCC(N4CCCCC4)CC3)oc3ccccc23)cc1 | inconclusive [inhibitor, single point]
Clc1ccc(-c2c(C3=NCCCN3)nnn2-c2ccc(Cl)cc2)cc1 | inconclusive [inhibitor, single point]
COc1ccccc1NC(=O)C1=C(C)Nc2nc(SCc3ccccc3F)nn2C1c1cccs1 (configuration not stated) | inactive
CCOc1ccc(N2C(=O)/C(=C/c3cc(OC)c(OC)c(OC)c3)N(CC(=O)OC)C2=S)cc1 | inconclusive [inhibitor, full curve, poor fit]
CC1CCCC(C)N1c1nnc(NC(=O)Cn2c(=O)oc3ccccc32)s1 (configuration not stated) | inactive
Cc1cc(N)n2ncc(-c3cccc(Br)c3)c2n1 | inconclusive [inhibitor, single point]
CC(NC(=O)CN1CCN(c2ccc(Cl)cc2)CC1)c1ccccc1 (configuration not stated) | inconclusive [inhibitor, partial curve, poor fit]
Nc1c(C(=O)Nc2ccc(F)c(F)c2)sc2nc(-c3ccncc3)ccc12 | inactive
Cc1ccc(-n2cc(CNCCN3CCOC3=O)c(-c3ccc(F)cc3)n2)cc1 | inconclusive [inhibitor, partial curve, poor fit]
COc1ccc(S(=O)(=O)Nc2ccc3c(c2)CCCN3S(=O)(=O)c2ccc(C)cc2)cc1F | inconclusive [inhibitor, single point]
O=C(Nc1ccc2nc(SCC(=O)N3CCCc4ccccc43)sc2c1)c1ccccc1 | inconclusive [inhibitor, partial curve, poor fit]
CCn1c(C)c(C)c2cc(C(=O)NCCc3ccco3)ccc21 | inconclusive [inhibitor, single point]
Cc1ccc(N=C2CCCCCN2C)c(C#N)c1 | inconclusive [inhibitor, single point]

Structure (SMILES) | Potency
CCOC(=O)c1ccc(NC(=O)Nc2cc3c(cc2N2CCCC2)n(C)c(=O)n3C)cc1 | inconclusive [inhibitor, single point]
COc1ccc(N2CCN(C(=O)c3cccc(NC(=O)c4nsc5ccccc45)c3)CC2)cc1 | inconclusive [inhibitor, partial curve, poor fit]
Fc1ccccc1CN(CCN1CCOCC1)C(=S)Nc1ccccc1Cl | inconclusive [inhibitor, partial curve]
Cc1[nH]c2ccccc2c1C(=O)COC(=O)c1c(-c2ccccc2Cl)noc1C | inconclusive [inhibitor, partial curve, poor fit]
O=C(Nc1ccc2c(c1)OCO2)N1CCN(c2ncc(C(F)(F)F)cc2Cl)CC1 | inconclusive [inhibitor, partial curve, poor fit]
O=C(Nc1cc(Cl)cc(Cl)c1)c1ccno1 | inconclusive [inhibitor, partial curve, poor fit]
CN(C(=S)NC1CCCCC1)C1(c2ccccc2Cl)CCCCC1=O (configuration not stated) | inconclusive [inhibitor, single point]
CCCOC(=O)c1ccc(NC(=O)c2ccccc2OC)cc1 | inconclusive [inhibitor, single point]
COc1cccc(CN2CCN(C(=O)[C@H]3O[C@@H](n4cnc5c(N)ncnc54)[C@H](O)[C@@H]3O)CC2=O)c1 | inactive
O=C(CBr)N1CCc2ccccc2C(c2ccccc2)C1 (configuration not stated) | inconclusive [inhibitor, single point]
O=C(COc1ccc(/C=N/NC(=O)c2ccccc2O)cc1)Nc1ccccc1 | inconclusive [inhibitor, single point]
CC1Cc2ccccc2N1Cc1cc(=O)c(OCC(=O)NCCc2ccccc2)co1 (configuration not stated) | inconclusive [inhibitor, partial curve, poor fit]
OCc1cn(-c2ccccc2)nc1-c1ccc(Br)cc1 | inconclusive [inhibitor, single point]
CCCCC(=O)Nc1nc2ccc3nc(C)sc3c2s1 | inactive
COc1ccc(/C=C/c2cc[n+](C(=O)Cc3ccccc3)cc2)cc1 | inconclusive [inhibitor, partial curve, poor fit]
CCc1cccc(C)c1NC(=S)NCC1CCN(c2ccc(OC)cc2)C1 (configuration not stated) | inconclusive [inhibitor, single point]
O=C(Nc1ccc(F)cc1)C(c1ccccc1)N1CCN(S(=O)(=O)c2ccccc2)CC1 (configuration not stated) | inconclusive [inhibitor, partial curve, poor fit]
N/C(=N\OC(=O)COc1cc(Cl)c(Cl)cc1Cl)c1ccncc1 | inactive
CCC(=O)c1ccc(N2CCN(C(=O)c3ccc(F)cc3)CC2)c(F)c1 | inconclusive [inhibitor, single point]
COc1ccc(Cl)cc1NC(=O)CN(C)C(=O)c1cc(=O)c2ccccc2o1 | inconclusive [inhibitor, full curve]
N#C/C(=C/c1cn(-c2ccccc2)nc1-c1cccc(OCc2ccc(F)cc2)c1)C(=O)NCCCn1ccnc1 | inconclusive [inhibitor, single point]

Structure (SMILES) | Potency
CC(=O)c1ccc(NC(=O)CC23CC4CC(C2)CC(n2nnc(C)n2)(C4)C3)cc1 | inconclusive [inhibitor, single point]
Cc1ccc(C(=O)Nc2ccc(S(=O)(=O)N3CCc4ccccc4C3)cc2)o1 | inconclusive [inhibitor, single point]
Cc1ccc(N(CC(=O)N2CCCCCC2)S(=O)(=O)c2ccccc2)cc1 | inconclusive [inhibitor, single point]
OCCn1c(SCCOc2ccccc2F)nc2ccccc21 | inconclusive [inhibitor, single point]
Cc1ccc(-c2csc(N(CCO)CCCn3c(C(F)(F)F)nc4cc(C(F)(F)F)ccc43)n2)cc1 | inconclusive [inhibitor, single point]
CN1CCC(OC(=O)c2cccc(Cl)c2)CC1 | inconclusive [inhibitor, full curve]
O=C(CN1CCN(c2nc(-c3ccc(F)cc3)cs2)CC1)Nc1ccc2c(c1)OCO2 | inconclusive [inhibitor, single point]
Cc1ccccc1S(=O)(=O)N1C(c2ccc(Cl)cc2)CC=C(C(=O)O)C1c1cccc(Cl)c1 (configuration not stated) | inconclusive [inhibitor, single point]
COc1cc(OC)cc(-c2nnc(SCC(=O)N(Cc3ccccc3)C(C)(C)C)o2)c1 | active: 8.91 µM
CCn1nnnc1SCC(=O)N1c2ccccc2CCc2ccccc21 | inconclusive [inhibitor, partial curve, poor fit]
O=C1CC[C@@H]2CC3(C[C@@H]4CCN1[C@H]24)Nc1cc(Cl)ccc1NC3=NC1CCCCC1 (some centres not stated) | inactive
CC(C)(C)C(=O)NC(=S)NCCc1ccccc1 | inconclusive [inhibitor, single point]
COc1cc(NC(=S)N2CCN(c3ccccn3)CC2)cc(OC)c1 | inactive
CCCCc1c(-c2ccccc2)ncn1CCc1ccccc1OC | inconclusive [inhibitor, single point]
C=CC[C@H](CC(=O)NCCO)C(=O)NC[C@@H](OC(=O)[C@@H](CC=C)Cc1ccc(F)cc1)c1ccccc1 | inconclusive [inhibitor, partial curve, poor fit]
Cn1cccc1Cc1nnc(SCC(=O)N2CCCc3ccccc32)n1-c1ccc(F)cc1 | inconclusive [inhibitor, single point]
CC(=O)c1ccc(NC(=O)c2ccc(-c3nc(CSc4ccccc4)c(C)o3)cc2)cc1 | inactive
Fc1ccc(-c2noc3ncnc(NCC4CCN(Cc5ccc(Cl)cc5)CC4)c23)cc1 | inconclusive [inhibitor, single point]
Cc1nc2ccc(-c3nc4ccccc4o3)cc2[nH]1 | inactive
c1ccc(COc2cccc(-c3cc4nc(NCCCn5ccnc5)ccn4n3)c2)cc1 | inconclusive [inhibitor, single point]
